From the supplement of paper PMC11417369 come the findings set out here.

The other results are listed elsewhere or left out.

The subject of the assay is PfHDP1 homeodomain (GST-tagged). The assay can be described thus: gcPBM binding intensity (ln(normalized median fluorescence intensity)); higher = stronger DNA binding. Summed up: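 An Agilent 4 × 180k array of primer-extended double-stranded 36-bp intergenic genomic probes, with negative controls, was incubated for 1 h with GST-tagged P. falciparum DNA-binding domains expressed in E. coli. Alexa488 anti-GST antibody detected bound protein, scanned at 488 nm. Binding intensity is the highest Masliner-normalised natural-log median intensity across replicate spots of either probe orientation.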
For “TCACGTATGTATATTACACACATACATATTATTCAC [CACACA_site4276]”, the “gcPBM binding intensity (ln)” value amounted to 6.75. Under “ATATTATATATATATAAACACACAAATATTTTTATA [CACACA_site8486]” stands 6.56; under “ATAAAATGAACCTTTTGTACATATATATATATATAT [XGTACX_site4610]”, 9.29. Turning to “AACATCTCATATCGTACTACACTCATATATATATAT [XGTACX_site170]”, the “gcPBM binding intensity (ln)” value is 9.21.

On to CATAAATAAGCTTTAGTGCATTATATTTAAATTTTT, for which the “gcPBM binding intensity (ln)” value is 9.97. With “TTTAATAATAATAAAAGTACACAAATATAAAGGAAA [XGTACX_site5203]”, the “gcPBM binding intensity (ln)” value stood at 6.86. Under “TGAATATTTCTATATACACACATATATATATATATA [CACACA_site3451]” stands 9.26. “CTAAAATACAGACACACACACACATATATATATATA [CACACA_site4150]”: the “gcPBM binding intensity (ln)” value is 9.26. As for “GGGTTTTTAAAATGTAGTACATATGTAAACATCAAA [XGTACX_site1262]”, the “gcPBM binding intensity (ln)” value amounted to 6.7. As to “TTAAAATAGGGCGAAGAAATTTTCTGTAAACATTTG [CACACA_negctrl_site1010]”, the “gcPBM binding intensity (ln)” value was 6.33. Under “ATATGCTTATATTATATATATAAGTCTATATATTTT [XGTACX_negctrl_site349]” stands 6.17; under “ATATATATAAAATGTTGTACATATATATAAATAATA [XGTACX_site1661]”, 6.15; under “ATATAATATGGTATTACACACTGTTAAAAGTATGGC [CACACA_site5190]”, 6.54. Under “ATATATATTTTTATAACACACAATGAAGTACATTAC [CACACA_site8270]” stands 7.07; under “TCTGTATATTTCGCGCGTACGAACAAATTGATAATT [XGTACX_site7965]”, 6.78.

“CACATACAGACATACACACATACACATATACGCATA [CACACA_site1745]”: the “gcPBM binding intensity (ln)” value amounted to 7.18. Under “TAAAGTAAAGACATACTTATTTTCCATCCACTTCTT [CACACA_negctrl_site1288]” stands 6.63; under “AAACAATAAAAGATTACACACATATATAGCATCTAT [CACACA_site5012]”, 6.44. As for “TTTCATTTGTCGTTATGTACTTATTAAATATTATTA [XGTACX_site7709]”, the “gcPBM binding intensity (ln)” value is 6.92. In the case of “ATATATATATATATATGTACATATTTTATTTAATTT [XGTACX_site1807]”, the “gcPBM binding intensity (ln)” value was found to be 9.2. Under “TTTTTTTTTTTTTTTTGTACGAATAAACAAGTTATT [XGTACX_site5473]” stands 6.21. Under TGTATTAAAAATTTGGTGCAACTTTTACATAATAAT stands 10.8. Turning to “AAAAAAAAAAAATACACACACACATATTTATTTATA [CACACA_site6483]”, the “gcPBM binding intensity (ln)” value worked out at 6.86. Consider “AAAAAAAAAAATAAATGTACAAAATAATGGGGAACA [XGTACX_site8723]”, for which the “gcPBM binding intensity (ln)” value worked out at 7.03. For “GTGAATGATTTAAGTACACACCGGTATTTATTCAAA [CACACA_site4950]”, the “gcPBM binding intensity (ln)” value was 6.32. Under “AAAAGAATTAATTTATGTACTAATTTCAAGAAATAA [XGTACX_site3241]” stands 5.78. For the sequence “CTCGATCAAGTGTATGCATGTACCAGTGAACAAAAA [TGCATGCA_site635]”, the “gcPBM binding intensity (ln)” value is 6.98. Turning to “TCCTTACACACACTTTTTTTTTTTTTTTTTTCTACA [GTGCAC_negctrl_site263]”, the “gcPBM binding intensity (ln)” value amounted to 6.89. With “CTTTTTCCTTTATAAAGTACTTAAAATATTTAGATA [XGTACX_site4259]”, the “gcPBM binding intensity (ln)” value is 6.48.

“ATATATTATCAACTTACACACAGAAAACTATAATAA [CACACA_site6275]”: the “gcPBM binding intensity (ln)” value worked out at 6.75. Turning to “ATATATTTAAAAAAATGTACAAATCATAAATGCAAG [XGTACX_site4230]”, the “gcPBM binding intensity (ln)” value was determined as 6.75. Regarding “AGAAATTAAATGTAAGCACACATAAATTATACACAT [CACACA_site9098]”, the “gcPBM binding intensity (ln)” value was 6.97. Under “AAAAAATTATACCAGTGTACTTTTTTGGTTTTTCTT [XGTACX_site2601]” stands 5.9. Under “TATAATGTTGATGATAGTACGTATGAGTTCAAAAAA [XGTACX_site3651]” stands 6.53; under “CATAAGATTTTTACATGTACATATTTATAATATATT [XGTACX_site6578]”, 6.9. Consider “TTCTTTTTTTTTTTTTCATGTATATTAAACTTTTCA [TGCATGCA_negctrl_site592]”, for which the “gcPBM binding intensity (ln)” value turned out to be 6.46.

Turning to “GATATATAAATTGACACACACATATATACCTATATA [CACACA_site6689]”, the “gcPBM binding intensity (ln)” value came to 6.56. For “AATATTTATATTAACTGTACAGAAAATATCTTTGCT [XGTACX_site8130]”, the “gcPBM binding intensity (ln)” value turned out to be 6.23. Regarding “TATGCCATGGCATAATGTACATAAGTGACCTCATAA [XGTACX_site1294]”, the “gcPBM binding intensity (ln)” value was determined as 6.52. For the sequence “AATATAAAAATGTTTACACACACACCGAAATATATT [CACACA_site8800]”, the “gcPBM binding intensity (ln)” value was 6.99. With “TATATATTTATTTATTGTACACTCTTTAAGAATACA [XGTACX_site2569]”, the “gcPBM binding intensity (ln)” value came out at 6.49. For the sequence “TATATATATATATATATATATATATATGTGTATGTA [TGCATGCA_negctrl_site255]”, the “gcPBM binding intensity (ln)” value is 9.31. Under “GATTCGATCTATATATGTACACATAAATATTTTTTG [XGTACX_site7015]” stands 6.74; under ATACACAAGAATATGTTGCACTTTTATATTCGTATG, 7.3; under “AATAAAATTGACCATTCACACAAGAAAAATTAATCA [CACACA_site5636]”, 6.13.
